# Experimental data: the supplement of paper PMC3334620
# In all, about 33,000 sequences were measured (“E-score (-0.5 to 0.5)”: median about -0.032, highest 2% from about 0.36 on). This is one part of the list.
# Target: T1, Sko1 (UniProt Q02100)
# T1 sequence: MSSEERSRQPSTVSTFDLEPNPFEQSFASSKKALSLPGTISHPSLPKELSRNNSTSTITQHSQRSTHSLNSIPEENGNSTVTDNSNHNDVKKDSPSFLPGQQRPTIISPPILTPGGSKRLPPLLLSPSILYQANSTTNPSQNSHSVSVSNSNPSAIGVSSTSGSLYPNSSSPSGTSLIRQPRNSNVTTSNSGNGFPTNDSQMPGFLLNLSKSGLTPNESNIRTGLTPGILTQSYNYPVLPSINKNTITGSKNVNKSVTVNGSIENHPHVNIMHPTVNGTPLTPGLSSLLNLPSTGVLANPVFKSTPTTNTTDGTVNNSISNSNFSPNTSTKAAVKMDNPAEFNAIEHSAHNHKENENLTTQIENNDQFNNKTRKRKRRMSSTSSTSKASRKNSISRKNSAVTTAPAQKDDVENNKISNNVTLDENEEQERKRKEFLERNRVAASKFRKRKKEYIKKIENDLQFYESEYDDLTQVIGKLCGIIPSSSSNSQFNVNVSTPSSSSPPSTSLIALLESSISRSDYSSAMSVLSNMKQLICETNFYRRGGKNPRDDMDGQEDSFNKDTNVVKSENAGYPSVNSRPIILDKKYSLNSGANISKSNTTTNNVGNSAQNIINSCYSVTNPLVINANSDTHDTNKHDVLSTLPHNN
# Experiment: PBM E-score (8-mer binding enrichment) (E-score (-0.5 to 0.5)); higher = stronger / more preferred TF binding; most listed sequences are background and not binding sites
# Settings: protein concentration: 200 nM; construct: GST-full length
# Outline: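 The E-score, a modified Wilcoxon-Mann-Whitney statistic, was computed by the Universal PBM Analysis Suite for every ungapped eight-base word pooled with its reverse complement. Scans behind it were normalised with masliner after bound GST-tagged yeast transcription factors were detected with fluorescent anti-GST. The proteins, at about 100-200 nM, had been applied to universal all-10-mer Agilent arrays made double-stranded by primer extension.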
row,Sequence,PBM E-score
1,TCTCTCAA,0.127
2,ACAAATAT,0.134
3,GGAGCGTA,0.0129
4,ATTAGTCC,0.00156
5,AAGACACC,-0.0885
6,AAACTAAC,0.15
7,ACTCGTTA,0.0383
8,CTGGTAAG,-0.0775
9,ACATATTA,0.286
10,AGGTTTGA,-0.119
11,AAGAGGAA,-0.021
12,ATGTGTGG,-0.144
13,GGCGGTAC,-0.148
14,GATGCGCA,0.201
15,TCAGCGCA,-0.0184
16,CTAGAATC,-0.0473
17,GCTTGGCC,-0.255
18,CTGTCACC,-0.181
19,CATGTCAG,0.0017
20,CTTTAAAG,0.124
21,GAAGCCTA,-0.0692
22,GATCAAAC,-0.0182

row,Sequence,PBM E-score
1,AGTGAGCC,-0.245
2,AGTTGACG,0.29
3,CATCACTC,0.11
4,TCAGCCCA,-0.149
5,CACTAACA,0.0382
6,ATCGTCAT,0.469
7,ACACGAAC,0.0399
8,CGTTTCAC,0.168
9,CCTTCAAC,-0.0402
10,CCCGTACG,0.0984
11,CCTGCCTC,-0.36
12,ACGACTGG,-0.0614
13,CGGGGCAA,-0.309
14,AGACTATA,0.00094
15,AATTTCCT,-0.118
16,CAGGATCC,-0.045
17,TTAGAGAA,-0.00929
18,CACGGACG,0.0947
19,CGCTTGCC,-0.171
20,CGACGTCA,0.486
21,CAATTAAA,0.182
22,AGTAAACC,-0.205

row,Sequence,PBM E-score
1,CGGACACA,-0.153
2,ACCGAAGT,-0.0926
3,GGGAGGAC,-0.184
4,CCCTCAGA,-0.338
5,ATGCCTCC,-0.118
6,AATAGTCC,-0.172
7,GAACCCCC,-0.488
8,GATCGGAC,-0.124
9,GTTACCCA,-0.0337
10,ATATGCAC,0.145
11,AGGTGGTC,-0.233
12,ATCGTTGG,-0.00227
13,AAGTATCA,0.0647
14,ACCTGAGG,-0.271
15,GCGATAGA,-0.0272
16,AAGATTAC,0.152
17,ACACGCGG,-0.0951
18,GCTACACC,-0.169
19,ATATAGCA,0.0531
20,CAAACCAA,-0.0239
21,ACATGTAG,0.164
22,GCCTGGAA,0.0112

row,Sequence,PBM E-score
1,CGCTACCC,-0.317
2,CAACACTG,-0.0331
3,CGTTCAGA,-0.0912
4,AGTACAAA,0.00733
5,CGGCGATA,-0.0431
6,AAACTGCC,-0.0721
7,CGATAACA,-0.00173
8,ATGATGCA,0.376
9,ATTGCATA,0.232
10,CCGCAGAG,-0.426
11,AACACGAG,0.033
12,ACACAAAT,0.156
13,AAGCATGG,-0.204
14,AGCTAACC,-0.215
15,ACTGATAT,-0.098
16,ATGAGGAG,-0.099
17,AGAAGCCA,-0.0674
18,ATCGATGC,0.0314
19,CCCGTCAC,0.189
20,GACGATAA,0.26
